The other results are listed elsewhere or left out. At the low end of the ranking, values are background and their order means little. Measured with an extract: partners may take part in the binding.

This test addresses T1, HNF4alpha2 (COS-7 nuclear extract) (UniProt P41235).
T1 sequence: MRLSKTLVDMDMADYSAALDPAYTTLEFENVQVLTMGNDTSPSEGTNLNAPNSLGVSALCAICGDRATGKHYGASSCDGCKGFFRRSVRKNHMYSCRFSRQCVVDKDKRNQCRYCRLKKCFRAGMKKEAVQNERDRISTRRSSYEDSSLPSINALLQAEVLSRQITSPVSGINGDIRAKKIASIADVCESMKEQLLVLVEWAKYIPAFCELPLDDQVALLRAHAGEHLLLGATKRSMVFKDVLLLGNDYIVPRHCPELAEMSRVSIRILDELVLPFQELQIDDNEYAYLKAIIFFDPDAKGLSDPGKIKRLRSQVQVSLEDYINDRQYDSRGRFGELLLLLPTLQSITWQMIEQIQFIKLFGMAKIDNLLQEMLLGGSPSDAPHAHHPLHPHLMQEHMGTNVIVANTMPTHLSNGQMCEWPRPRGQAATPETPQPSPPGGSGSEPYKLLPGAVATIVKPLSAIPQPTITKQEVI
As to the kind of experiment: protein-binding microarray. The settings on record: COS-7 nuclear extract on double-stranded Agilent 4x180k PBM; binding buffer, salt, pH and temperature not given; high values mean tight binding; double strand, one strand shown; sequences stand for … in …GCCTAGGGAGATTAGAGTATCGGTCGA
Turning to AAGCAGCTGTGATGAGGCCAGCAGGGTGCC, the binding signal (log2 normalized intensity) is -1.06.
Then CTTCATTGTGCACCCACTTGGATAATTTCT, with 0.523; and GTCATAATTTGATCCAGTGTGCAAATGTGT, with 2.28; and AAAAAGATGGTCTTACAACATAGTGATTTA, with -0.107.
For CTTTGACCCTGCTGTAGTGTGTAAGTATGC the value was 1.75; for TTCAGCAGCATCTAAACTCTACTCACTAGA, -1.18; for TTTGTAGGCAGCTAGGCAGGCTCAGAACTA, -1.15.
For TCCACCCTGAAAGAGAGGAGGCTGAAGACT the value was -1.24.
Take ATAGCTGCCTGTGTGTTCTGCTATTCATTA: the binding signal (log2 normalized intensity) came out at 1.18.
For CAGAGGAACAGAGGGGTCTGAGCACATCAC the value was -1.17; for AATGAGGTCAATAGTCCAGATACAGATGGC, 3.23; for GGGGACGGAAGTTGCAGTGAGCTAAGATTG, -1.09.
On to AGAACTAAGCTGTTGCGTAAGGGTCTGACC, for which the binding signal (log2 normalized intensity) was found to be 1.46.
Then GATACACCCCTAATGAATGGCAAATTAAAC, with -0.289.
Take TTTTCTTCCACCTCCCTCCATGCTGTAGAT: the binding signal (log2 normalized intensity) was 2.26.
Consider TGCTTGATAAGACTGACAACCGGCTCTTCC, for which the binding signal (log2 normalized intensity) is -1.1.
Turning to GCAATCTAAGTCTGGCTCCTGAAACTAAAG, the binding signal (log2 normalized intensity) was -1.24.
Take GAGGAGAGGCAGTGGCCTGAGGCAGCCAGT: the binding signal (log2 normalized intensity) was -1.09.
Then CACCCTGTTGCACAAGCTGTGTGGCATGGT, with 0.16; and AAGAGCAATCATCAAGGTGGTTTCACTTCA, with 0.297; and CCTCTTCCCTCATATAATTTACATAACAGG, with 1.49.
Then ATTCATGGACAGCCTTGCCACATGGTCACC, with -0.761.
For AGGACAAAAGTAAATATGGTTTACCATATT the value was -0.934.
For the sequence TGTTGAAAAGAGCATAAGGTTTCCATCAAG, the binding signal (log2 normalized intensity) is -0.784.
For GCATGCTATTTCAGGAATGTGACCCCTTTC, the binding signal (log2 normalized intensity) came to 4.81.
On to GTCACCTCCACCCACCCGTGCATCAACATA, for which the binding signal (log2 normalized intensity) came to 3.62.
For ACATTCTGAGCCAGCACTTCGACCTCACAT the value was 1.85; for AAAGAGGGTGTAAGAGTGAACTCTGACCAT, 4.23; for TGAGAAAAGAACCATGAGAGGGTTAAAAAC, -0.969.
Then GCCCAACAGCATTAAGCTGAGGCAGAGTTG, with -1; and TCCTCCAACTGCCACGGTAAATATTATCAT, with 0.708; and TATCCAATAAAACACTATCTTCTTTCAGTG, with 0.883.
Then TTTATTTAGCCTCACTAAGATAGGGAAGCT, with -1.13.
Turning to AAGCAATGGCTACCAAGGAGTGGACTGTTC, the binding signal (log2 normalized intensity) was 1.7.
Take CTTCCACCCACTTTATCTTCTATAGGAATT: the binding signal (log2 normalized intensity) was determined as 0.867.
For GACAGGAGGTATGCCAGGAATGCTGAGGAG the value was -1.19; for TTTGGAATTAAGGAGATTTGGCTTTGAATT, -1.07; for CCTCCTCTCTGAGCAGTCAAACTGGTTTCT, 0.459.
Then TCTGCAGGGTTAAATCTCGGTATAATTCCT, with -1.14.
For GGATGGGGTCACGAGACGGTGTCCCTGGCC, the binding signal (log2 normalized intensity) was -0.831.
For GTGCACCCTTCCTCTGCAGCCGCCCTTTTG the value was 2.32.
On to GTGGTCATGTAGGTGTCTCAGGAATGTCCT, for which the binding signal (log2 normalized intensity) turned out to be 1.85.
As to TTTCATCTCTGTAAACTGGCCAGAAGGTCA, the binding signal (log2 normalized intensity) amounted to 2.81.
Then CCCTTTGACCTCTGCTTCCTGCTACAGAGC, with 1.87; and GGTTGTGAGGGAGGGCACAGGCAACAGAGG, with -0.917; and TGGGACCATGAGTACCAGGTCAAAAGTTCA, with 3.98.
Consider CACCTTCTTCCTAGGCAATCCCATGACCTT, for which the binding signal (log2 normalized intensity) came to 3.25.
For ATGCAGCCTTGGGCAAGTTACTTAAGCCAT the value was -1.18; for TTTCTGAGAAACTTCTTTGTGATGTGTGGA, 1.83; for TGCAAGCAAACCTGCCCTTTGCTCCAGAGG, 3.04.
For TCACTCAGTCCACATGGTGTCTTTTGTTGT the value was 1.68; for GGTCAATGTCCACACCCCAGTTTCATCAAC, 2.77; for CCAGGTCGAAGTTTATGTTTACTGTGGATC, 2.15.
As to TTCAATGGTGCTTTTGATATTGTTGTAAAG, the binding signal (log2 normalized intensity) came to 2.36.
For TCCAGGGCCGCCCAAGCGAATATGTCAGGC, the binding signal (log2 normalized intensity) is -1.16.
For TTTCTTCCCTAATGGACATCTCTAGGAACT the value was -1.01.
With TAGGAATCACACAACTTTCATTGAACTGCT, the binding signal (log2 normalized intensity) was -1.23.
For the sequence GGCTCAGGACAGGTGAGCCCGGCAGAGAGT, the binding signal (log2 normalized intensity) was -1.03.
With TCAACCTTCATTCTCATCTTCTATGATAAG, the binding signal (log2 normalized intensity) was determined as 1.16.
Regarding CATAACTGACTGTGTCTGTTTACCCACTTG, the binding signal (log2 normalized intensity) was 0.744.
Consider CGACCTCCCCGTCACCCTCCCCGCCACCCC, for which the binding signal (log2 normalized intensity) was found to be 6.67.
For CACAGTACTGTCTTTTTGCCACTAGGGGTC the value was 3.13.
Then AGAGACAGAGAGAGAGAGAGAATGACCCTT, with 4.44; and TGGTGGAGCAAAAAGGCCGTTCAAAGGCAG, with -1.06.
Then GTGATTTATGAAGGGGGGTGGGGAGGCAGG, with -1.16.
As to AACTCTAGTGATCTTATCAGCAAGGGCATT, the binding signal (log2 normalized intensity) stood at 1.4.
For GTTCATTTTACAATGCAAACCTAACAGGCT the value was -1.13.
For TGTGATCTCTAGACTAAGGGCACAGGGTGA the value was 1.32.
On to TGACACTCGAGGATCAGAGACACGATGTTC, for which the binding signal (log2 normalized intensity) is -1.2.
Then CCACAACAGAACCTTGTTTTGTCTTCTGTT, with 0.794; and GTTCCAGCTGCTTCAGGAGCCCCCTGGGGG, with -1.08.
Then AAGGCGGAAGTACTGCCCTTAACTCCCGGC, with -1.15; and GGGGAGGGCATGGACTTTGGAATTAAGGAG, with 5.45.

For the origin of these results see paper PMC10726135.
